We go through 5 molecules from paper PMC10427645, “Extracellular Pgk1 interacts neural membrane protein enolase-2 to improve the neurite outgrowth of motor neurons” (Communications Biology, 2023).

Protein sequences, listed by entry. Tags and fused reporters are not part of them.
UniProt P17183: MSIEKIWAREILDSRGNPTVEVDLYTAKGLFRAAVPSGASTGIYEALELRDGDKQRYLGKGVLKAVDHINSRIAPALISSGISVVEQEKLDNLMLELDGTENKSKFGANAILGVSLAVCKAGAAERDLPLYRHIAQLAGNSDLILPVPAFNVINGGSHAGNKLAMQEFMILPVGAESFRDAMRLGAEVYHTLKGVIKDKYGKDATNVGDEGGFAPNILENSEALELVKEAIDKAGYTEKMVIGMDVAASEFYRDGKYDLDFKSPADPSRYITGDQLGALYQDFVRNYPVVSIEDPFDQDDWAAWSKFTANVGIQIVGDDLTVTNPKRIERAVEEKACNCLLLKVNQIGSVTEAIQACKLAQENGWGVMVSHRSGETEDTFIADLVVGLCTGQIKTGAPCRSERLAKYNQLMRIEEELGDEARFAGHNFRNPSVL

These are yes or no findings as the source states them, for the method shown. Binding seen in cells or lysates may run through a third protein. Some results given as binding are weak or reduced against the parent protein; the word gives no strength. Sequences can lack the tags named with a protein.

Experiment [1] concerns the target Eno2-Myc (mouse Enolase-2 fused with Myc) (mouse) (UniProt P17183). Briefly: cross-linking + co-IP; cell surface crosslinking-IP: Sf21 cells expressing the Myc-tagged protein incubated 2 h with recombinant Flag-tagged Pgk1 or fragment in the medium, BS3 cross-linking, lysates immunoprecipitated with anti-Flag or anti-Myc beads, western blot with anti-Flag and anti-Myc; only the binder purified.

In experiment [2] the target is T1, Eno1-Myc (mouse Enolase-1 fused with Myc) (mouse), P17182.
T1 chain: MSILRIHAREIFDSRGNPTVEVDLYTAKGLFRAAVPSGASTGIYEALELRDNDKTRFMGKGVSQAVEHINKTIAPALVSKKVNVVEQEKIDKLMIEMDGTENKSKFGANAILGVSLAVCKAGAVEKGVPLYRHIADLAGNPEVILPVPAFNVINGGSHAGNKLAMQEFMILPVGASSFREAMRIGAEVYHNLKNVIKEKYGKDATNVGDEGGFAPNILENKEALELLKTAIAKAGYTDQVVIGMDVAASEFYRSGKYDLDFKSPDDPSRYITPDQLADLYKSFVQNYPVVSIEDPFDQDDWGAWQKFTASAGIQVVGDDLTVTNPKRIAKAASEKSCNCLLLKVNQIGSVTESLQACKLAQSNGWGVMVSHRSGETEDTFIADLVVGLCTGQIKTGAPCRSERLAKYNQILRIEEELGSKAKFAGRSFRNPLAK
The experiment is described as above. The conditions noted are these: remark: other sources report otherwise.

B1: Pgk1(225–417)-Flag (domain or fragment, UniProt P09411 225-417)
chain: NNMLDKVNEMIIGGGMAFTFLKVLNNMEIGTSLYDEEGAKIVKDLMSKAEKNGVKITLPVDFVTADKFDENAKTGQATVASGIPAGWMGLDCGTESSKKYAEAVGRAKQIVWNGPVGVFEWEAFARGTKSLMDEVVKATSRGCITIIGGGDTATCCAKWNTEDKVSHVSTGGGASLELLEGKVLPGVDALSNV
For the molecule B1, in experiment [1], the binding entry is on record as “binds”.

B2: Pgk1(325–417)-Flag (domain or fragment, UniProt P09411 325-417)
chain: AEAVGRAKQIVWNGPVGVFEWEAFARGTKSLMDEVVKATSRGCITIIGGGDTATCCAKWNTEDKVSHVSTGGGASLELLEGKVLPGVDALSNV
With B2, in experiment [1], the binding result is listed as “binds”.

B3: recombinant mouse Pgk1 fused with Flag (Pgk1-Flag), P09411 1-417 (protein)
chain: MSLSNKLTLDKLDVKGKRVVMRVDFNVPMKNNQITNNQRIKAAVPSIKFCLDNGAKSVVLMSHLGRPDGVPMPDKYSLEPVAAELKSLLGKDVLFLKDCVGPEVENACANPAAGTVILLENLRFHVEEEGKGKDASGNKVKAEPAKIDAFRASLSKLGDVYVNDAFGTAHRAHSSMVGVNLPQKAGGFLMKKELNYFAKALESPERPFLAILGGAKVADKIQLINNMLDKVNEMIIGGGMAFTFLKVLNNMEIGTSLYDEEGAKIVKDLMSKAEKNGVKITLPVDFVTADKFDENAKTGQATVASGIPAGWMGLDCGTESSKKYAEAVGRAKQIVWNGPVGVFEWEAFARGTKSLMDEVVKATSRGCITIIGGGDTATCCAKWNTEDKVSHVSTGGGASLELLEGKVLPGVDALSNV
On to B3, for which the binding result in experiment [2] was “no binding”.

B4: Pgk1(1–145)-Flag (domain or fragment, UniProt P09411 1-145)
chain: MSLSNKLTLDKLDVKGKRVVMRVDFNVPMKNNQITNNQRIKAAVPSIKFCLDNGAKSVVLMSHLGRPDGVPMPDKYSLEPVAAELKSLLGKDVLFLKDCVGPEVENACANPAAGTVILLENLRFHVEEEGKGKDASGNKVKAEPA
For B4, the binding entry in experiment [1] is “no binding”.

B5: Pgk1(146–417)-Flag (domain or fragment, UniProt P09411 146-417)
chain: KIDAFRASLSKLGDVYVNDAFGTAHRAHSSMVGVNLPQKAGGFLMKKELNYFAKALESPERPFLAILGGAKVADKIQLINNMLDKVNEMIIGGGMAFTFLKVLNNMEIGTSLYDEEGAKIVKDLMSKAEKNGVKITLPVDFVTADKFDENAKTGQATVASGIPAGWMGLDCGTESSKKYAEAVGRAKQIVWNGPVGVFEWEAFARGTKSLMDEVVKATSRGCITIIGGGDTATCCAKWNTEDKVSHVSTGGGASLELLEGKVLPGVDALSNV
Take B5: the binding result in experiment [1] is reported as “binds”.
